In patent US10357514B2, “Treatment of cancer using anti-CD19 Chimeric Antigen Receptor” (The Trustees of the University of Pennsylvania, priority 2014, dated 2019):

Tests used:
CART19 cells = assay: T cell dynamics in blood following IL-7 treatment in the lymphoma animal model; format: in vivo, NSG mice
Description: T cell dynamics following IL-7 treatment in the lymphoma animal model was also examined. […] The extent of T cell expansion observed in mice receiving the IL-7 also correlated with tumor response. The mouse with the highest number of T cells detected in the blood at peak expansion during IL-7 treatment (mouse #3815) had the most robust reduction in tumor burden (see FIG. 49B). Moreover, the time of peak expansion correlated with the T cell dose injected as baseline. The number/level CD3-expressing cells in the blood were also measured before and after IL-7 treatment.

MCL-RL cells = assay: MCL-RL xenograft model in NSG mice; format: in vivo; settings: mice treated with CART19 cells and ibrutinib
Method: NOD-SCID-γ chain−/− (NSG) mice originally obtained from Jackson Laboratories were purchased from the Stem Cell and Xenograft Core of the University of Pennsylvania. All experiments were performed on protocols approved by the Institutional Animal Care and Use Committee (IACUC). Schematics of the utilized xenograft models are discussed herein. Cells (MCL cell lines or T cells) were injected in 200 ul of PBS at the indicated concentration into the tail veins of mice. Bioluminescent imaging was performed using a Xenogen IVIS-200 Spectrum camera and analyzed with LivingImage software v. 4.3.1 (Caliper LifeSciencies). Animals were euthanized at the end of the experiment or when they met pre-specified endpoints according to the IACUC protocols.
Schematics such as those shown in FIGS. 20, 55, and 5A were used in this example. […] 1×10^6 cells from RL (MCL-3), JEKO-1 (MCL-4), and NALM6 (MCL-5) cell lines are injected in NSG mice (20 mice for each experiment). […] At Day 7, Day 14, Day 21, and Day 28, the bioluminescence is imaged to monitor tumor size. […] Survival of the mice is also monitored. […] 2×10^6 MCL-RL cells are injected into NSG mice. […] At days 14, 21, 28, and 35 (after injection of MCL-RL cells), the bioluminescence is imaged to monitor tumor size.
Mean bioluminescence, representing tumor growth, was assessed at various timepoints.

ITK = target: T1, ITK (Homo sapiens, UniProt Q08881); format: cell-based
T1 construct: endogenous in cells; host or cells: human CART19 T cells (lentivirally transduced donor T cells)
T1 sequence (Q08881 1-620): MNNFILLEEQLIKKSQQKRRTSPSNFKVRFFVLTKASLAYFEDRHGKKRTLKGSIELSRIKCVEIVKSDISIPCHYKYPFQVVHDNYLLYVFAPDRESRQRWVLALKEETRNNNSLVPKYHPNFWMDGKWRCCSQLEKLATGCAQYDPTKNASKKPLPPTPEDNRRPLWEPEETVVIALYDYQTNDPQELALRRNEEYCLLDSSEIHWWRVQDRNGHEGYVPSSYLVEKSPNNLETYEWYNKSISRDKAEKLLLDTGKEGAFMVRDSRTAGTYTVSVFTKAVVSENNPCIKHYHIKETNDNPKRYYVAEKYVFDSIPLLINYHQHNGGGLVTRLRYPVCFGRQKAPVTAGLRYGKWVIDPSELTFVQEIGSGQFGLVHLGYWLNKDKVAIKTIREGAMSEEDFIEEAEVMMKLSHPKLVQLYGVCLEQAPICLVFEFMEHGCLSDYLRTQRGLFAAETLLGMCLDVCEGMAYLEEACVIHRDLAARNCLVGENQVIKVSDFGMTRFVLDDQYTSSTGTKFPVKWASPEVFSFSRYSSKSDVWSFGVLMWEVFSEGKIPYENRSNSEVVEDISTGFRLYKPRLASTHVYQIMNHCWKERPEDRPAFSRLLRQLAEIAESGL
Description: See Dubovsky et al. Blood 122.15 (2013):2539-49.

CART19 T cells = settings: with or without ibrutinib
MCL cells = format: cell-based, human; settings: in the presence of ibrutinib
Method: Luciferase/eGFP+ NALM-6 or RL cells were used for cytotoxicity assay as previously described. See, e.g., Gill et al. Blood. 123.15 (2014):2343-54. Targets were incubated at the indicated ratios with effector T cells for 4 or 16 hours. Killing was calculated by bioluminescence imaging on a Xenogen IVIS-200 Spectrum camera.
Additional bioluminescence assays were performed to assess CART19 cell killing of tumor cells. […] After 24 hours, the bioluminescence was detected and quantified.

| Compound | CD3+ cells in the blood (CART19 cells; after IL-7 treatment, versus control mice) | numbers of T cells in blood (CART19 cells; upon IL-7 treatment) | peripheral CART19 cells (MCL-RL cells) | phosphorylated ITK (pITK-Y180) (ITK; non-specific stimulation of CART19 cells via the TCR) | ITK activation (ITK; specific stimulation of CART19 cells via the CAR) | TH1 and TH2 cytokine production in CART19 cells (CART19 T cells) | killing of MCL cells by CART19 cells (MCL cells) |
| --- | --- | --- | --- | --- | --- | --- | --- |
| IL-7: exogenous recombinant human IL-7 | significant increase | rapid, but variable increase | – | – | – | – | – |
| C=CC(=O)N1CCC[C@@H](n2nc(-c3ccc(Oc4ccccc4)cc3)c3c(N)ncnc32)C1 [ibrutinib, 1-[(3R)-3-[4-Amino-3-(4-phenoxyphenyl)-1H-pyrazolo[3,4-d]pyrimidin-1-yl]piperidin-1-yl]prop-2-en-1-one] | – | – | increase in peripheral CART19 cells | reduction in phosphorylated ITK | did not lead to diminished ITK activation | does not promote skewing of TH1 and TH2 cytokines | augmented |
